Measured values from PubChem BioAssay AID1159614 (National Center for Advancing Translational Sciences (NCATS), 2016).
In all, about 45,000 compounds went through this assay and about 65 (0.1%) were called active. The call rests on the fitted dose curve; in most records, active means well fitted activation curve with a large enough effect; inconclusive means small, poorly fitted or top-dose-only effect; inactive means no such curve, though single readings can be large or run the other way. This is one part of the list.

These compounds were tested against Galactocerebrosidase (Homo sapiens) (UniProt P54803) (assay: A Novel Cell-Based Assay to Identify Small Molecules for B -Galactocerebrosidase). Conditions: 145M-Twi-hGALC-G270D cells (Twitcher mouse brain line with human GALC G270D), HMU-beta-Gal fluorescence, 48 h; series mostly up to 57.5 µM; activation: at the top concentration.
UniProt P54803, sequence (P54803 whole entry, looked up): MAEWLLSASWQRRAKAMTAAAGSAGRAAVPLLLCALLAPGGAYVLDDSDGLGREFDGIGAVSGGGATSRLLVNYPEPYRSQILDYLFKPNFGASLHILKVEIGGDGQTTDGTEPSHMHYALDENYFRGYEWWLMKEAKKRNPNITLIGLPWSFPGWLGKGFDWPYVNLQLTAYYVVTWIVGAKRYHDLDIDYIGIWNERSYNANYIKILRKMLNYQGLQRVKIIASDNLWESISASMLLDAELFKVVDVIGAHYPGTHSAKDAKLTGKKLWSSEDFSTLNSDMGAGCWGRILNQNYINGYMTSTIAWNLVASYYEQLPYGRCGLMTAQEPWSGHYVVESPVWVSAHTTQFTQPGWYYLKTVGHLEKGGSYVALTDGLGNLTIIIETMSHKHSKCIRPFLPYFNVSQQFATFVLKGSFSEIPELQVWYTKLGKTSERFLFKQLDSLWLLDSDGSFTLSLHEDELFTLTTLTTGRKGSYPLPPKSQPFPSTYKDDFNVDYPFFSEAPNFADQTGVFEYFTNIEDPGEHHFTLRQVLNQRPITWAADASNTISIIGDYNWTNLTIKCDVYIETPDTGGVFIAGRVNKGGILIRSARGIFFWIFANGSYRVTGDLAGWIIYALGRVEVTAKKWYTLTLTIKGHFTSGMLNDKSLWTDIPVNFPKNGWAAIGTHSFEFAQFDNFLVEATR
Summary of the method: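 Fluorogenic HMU-b-Gal hydrolysis (0.1 mM final, pH 5.2 citrate-phosphate with 1 mg/mL sodium taurocholate; carbonate stop buffer) measures mutant GALC activity after compound treatment of live 145M-Twi Twitcher brain cells stably carrying human GALC-G270D, with wild-type GALC line alongside; activation sought.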
Further: 0% is about no effect; nearly all actives have a fitted effect of over 65% in size.

activation, inactive:
COC(=O)c1c(-c2cccs2)csc1NC(=O)c1cc(OC)cc(OC)c1 -12%
CCN(CC)c1ccc(NC(=O)Cn2c(C)c3cnn(-c4ccccc4)c(=O)c3c2C)c(C)c1 -3.76%
Cc1cc(Cl)ccc1NC(=O)CCS(=O)(=O)c1cc2c(cc1C)NC(=O)CO2 -1.16%
Clc1cccc(-n2ncc3c(NCCCc4ccccc4)ncnc32)c1 -7.26%
COc1cc(C(C)=O)ccc1OCCCN1CCC(c2noc3cc(F)ccc23)CC1 -9.26%
Cc1cc(C)cc(NC(=O)C(Cc2ccccc2)N2Cc3ccccc3C2=O)c1 (centres undefined) -20%
O=C(NCCSc1c(-c2ccc(Br)cc2)[nH]c2ccccc12)c1ccc(S(=O)(=O)N2CCOCC2)cc1 -9.88%
Cc1ccc(CNC(=O)C(CC(C)C)N2Cc3ccccc3C2=O)cc1 (centres undefined) -12.6%
Cc1ccc(Cl)cc1NC(=O)Cn1c(=O)c(CNc2ccccc2)cc2cc3c(cc21)OCCO3 10.5%
CCOC(=O)C1=C(CN2CCN(c3ccccc3)CC2)NC(=O)NC1c1ccc(C)cc1 (centres undefined) -23.5%
COc1ccc(C2c3c(-c4ccccc4O)n[nH]c3C(=O)N2Cc2ccco2)cc1 (centres undefined) -6.1%
Cc1sc2ncn(CC(=O)Nc3cccc(C(F)(F)F)c3)c(=O)c2c1S(=O)(=O)N1CCC(C)CC1 -26.4%
COc1cccc(C(=O)NC(=O)Nc2ccc(-c3cc(C(F)(F)F)nn3-c3ccccc3)cc2)c1 1.48%
O=C(Nc1ccccc1C(=O)OCc1cc(=O)n2nc(C3CC3)sc2n1)c1cccc(Cl)c1 -5.46%
Cc1cccc(Cn2c(CN3CCC(C(=O)NCCc4ccccc4)CC3)cc3ccccc32)c1 -18.7%
COc1ccc(C(=O)Nc2cc(C(F)(F)F)ccc2N2CCN(c3ccccc3)CC2)cc1OC -9.22%
COc1ccc(-c2c(C)nn3c4c(cnc23)C(=O)CC(c2ccc(C)cc2)C4)cc1 (centres undefined) -13.1%
CCN(c1cccc(C)c1)S(=O)(=O)c1nnc(NC(=O)c2cccs2)s1 0.159%
Cc1c(C(=O)Nc2ccccc2Br)oc2ccc(S(=O)(=O)N3CCCCC3)cc12 -18.6%
CCCCn1c(-c2ccc(S(=O)(=O)N3CCOCC3)cc2)csc1=Nc1ccccc1 -38.8%
COc1cccc(NC(=O)Cn2c(=O)n(-c3ccc(CC(=O)NCC4CCCO4)cc3)c(=O)c3ccccc32)c1 (centres undefined) -14.9%
CCOc1ccccc1NC(=O)c1cccc2c1C(=O)N(C1CCCCC1)C2 -14.9%
CCC(=O)Nc1nnc(S(=O)(=O)N(C)Cc2ccccc2)s1 -5.86%
Cc1cc(C)cc(NC(=O)NCCn2nnc3cc(S(=O)(=O)N(C)C)ccc32)c1 -3.06%
CSc1ncc(Cl)c(C(=O)N(Cc2ccccc2Cl)C2CCS(=O)(=O)C2)n1 (centres undefined) -16.3%
CCOc1ccc(C(=O)OCc2cc(=O)n3nc(C4CCCCC4)sc3n2)cc1 -6.97%
CCOc1ccc(NC(=O)Cc2csc(COc3cccc(C)c3)n2)cc1 -13.6%
CCOc1ccccc1C1C(C(=O)Nc2ccccc2OC)=C(C)Nc2nc3ccccc3n21 (centres undefined) -2.2%
Cc1ccc2nc(NC(=O)c3cc(=O)c4cc(C)c(C)cc4o3)sc2c1 -21.9%
CCCN1C(=O)C(NC(=O)c2ccccc2OC)(C(F)(F)F)C(C(=O)OC)=C1C (centres undefined) -16.4%
Cc1ccc(C)c(NC(=O)CSc2cn(CC(=O)N3CCCC3)c3ccccc23)c1 -1.14%
Cc1cc(C)c(NC(=O)CN(CC(=O)O)CC(=O)O)c(C)c1Br -9.96%
CCc1nnc2c3ccccc3nc(N3CCN(c4ccc(C)cc4C)CC3)n12 -10.2%
CCOc1ccc(NC(=O)Cn2c(C)ccc(C#N)c2=O)cc1 -1.02%
O=C(NCCc1csc(-c2cccnc2)n1)c1cccc(C(F)(F)F)c1 -38.3%
COc1ccccc1CNC(=O)c1ccc(C)c(-n2cnc3cccnc32)c1 7.55%
CSc1ccc(CNC(=O)CCn2ccc3cc(S(=O)(=O)N4CCCC4)ccc32)cc1 -14.6%
COc1ccccc1NC(=O)CSc1nc2c(oc3ccccc32)c(=O)n1-c1ccc(C)cc1 3.41%
CCOC(=O)N1CCc2c(sc3c2c(=O)n(-c2ccc(Cl)cc2)c(=O)n3CC(=O)c2ccc(F)cc2)C1 -13.9%
COc1ccc(NS(=O)(=O)c2nnc(NC(=O)c3ccccc3F)s2)cc1 -9.59%
O=C(CCCn1c(=O)c2cccn2c2cccnc21)NCCc1ccc(Cl)cc1 -8.13%
Cc1cc(Br)ccc1NC(=O)c1cc2c(s1)-c1ccccc1SC2 3.58%
COc1ccc(-c2nn(C)c3sc(C(=O)N4CCN(c5cccc(C)c5C)CC4)cc23)cc1OC -10.9%
COc1ccc(CN2C(=O)C(NC(=O)c3ccc(C)cc3)(C(F)(F)F)N=C2c2ccccc2)cc1 (centres undefined) -13.8%
CCOC(=O)c1ccccc1NC(=O)CN(c1ccccc1OC)S(=O)(=O)c1ccc(C)cc1 -11.9%
Cc1ccc(CNc2nc3c(S(=O)(=O)c4ccccc4)nnn3c3ccsc23)cc1 -2.3%
COc1cc(/C=C/c2nc(C#N)c(NC3CCCCC3)o2)cc(OC)c1OC -13.4%
COc1ccc(-n2ccnc(NCCc3ccc(S(N)(=O)=O)cc3)c2=O)cc1 1.81%
Cc1ccc(C)c(N2CCN(C(=O)CN3C(=O)COc4ccc(S(=O)(=O)N5CCCCCC5)cc43)CC2)c1 -7.99%
CCOC(=O)c1c(NC(=O)c2noc3c2CC(C(C)(C)C)CC3)sc2c1CCCC2 (centres undefined) -22.8%
Cc1cc(C)c(Cn2c(C)c(CNCCCc3ccccc3)c(C(=O)O)c2C)c(C)c1 -16%
CC(=O)c1sc2c(c1C)c(=O)n(-c1ccc(Cl)cc1)c(=O)n2Cc1ccc(Cl)cc1 -12.9%
CC(NC(=O)Cn1ncc2c3ccccc3n(Cc3ccc(F)cc3)c2c1=O)c1ccccc1 (centres undefined) -17.1%
O=C(NCC(c1cccs1)S(=O)(=O)c1cccs1)c1ccccc1 (centres undefined) -33.4%
CCOC(=O)c1ccc(NC(=O)C2Cc3ccccc3CN2S(=O)(=O)c2ccc(Cl)cc2)cc1 (centres undefined) -10.4%
COc1ccc(Cl)cc1NS(=O)(=O)c1cc(-c2cc(C)no2)ccc1C -13.2%
Cc1cc(Br)ccc1NC(=O)CCS(=O)(=O)c1cccc2nonc12 7.88%
CCC1CN(C(=O)N2CCC(C(=O)NCc3ccc(C)o3)CC2)c2cc(C)ccc2O1 (centres undefined) -17.5%
CCOC(=O)N1CCN(S(=O)(=O)N2CCCC(C(=O)NCc3cccc(OC)c3)C2)CC1 (centres undefined) -5.21%
